Measured values as given in PubChem BioAssay AID1460 (National Center for Advancing Translational Sciences (NCATS), 2008).
In all, about 270,000 compounds went through this assay and about 5,800 (2.1%) were called active. Inconclusive means that the source gave no clear call. Such entries were picked first, then a sample of the others. Calls come from the whole dose curve; as a rule, active = well fitted inhibition curve with a large enough effect; inconclusive = small, poorly fitted or top-dose-only effect; inactive = flat fitted curve, though single readings scatter. Potencies beside an inconclusive call are fits to weak or partial responses and may not hold up.

What follows are compounds tested against Microtubule-associated protein tau (Homo sapiens) (UniProt P10636) (assay: qHTS for Inhibitors of Tau Fibril Formation, Thioflavin T Binding). Settings: recombinant tau K18 P301L (four-repeat tau fragment), heparin-induced fibrillization, ThT fluorescence; series mostly up to 57.4 µM; activity, negative = inhibition: at the top concentration.
UniProt P10636, sequence (P10636 whole entry, looked up, the tested form may be a part): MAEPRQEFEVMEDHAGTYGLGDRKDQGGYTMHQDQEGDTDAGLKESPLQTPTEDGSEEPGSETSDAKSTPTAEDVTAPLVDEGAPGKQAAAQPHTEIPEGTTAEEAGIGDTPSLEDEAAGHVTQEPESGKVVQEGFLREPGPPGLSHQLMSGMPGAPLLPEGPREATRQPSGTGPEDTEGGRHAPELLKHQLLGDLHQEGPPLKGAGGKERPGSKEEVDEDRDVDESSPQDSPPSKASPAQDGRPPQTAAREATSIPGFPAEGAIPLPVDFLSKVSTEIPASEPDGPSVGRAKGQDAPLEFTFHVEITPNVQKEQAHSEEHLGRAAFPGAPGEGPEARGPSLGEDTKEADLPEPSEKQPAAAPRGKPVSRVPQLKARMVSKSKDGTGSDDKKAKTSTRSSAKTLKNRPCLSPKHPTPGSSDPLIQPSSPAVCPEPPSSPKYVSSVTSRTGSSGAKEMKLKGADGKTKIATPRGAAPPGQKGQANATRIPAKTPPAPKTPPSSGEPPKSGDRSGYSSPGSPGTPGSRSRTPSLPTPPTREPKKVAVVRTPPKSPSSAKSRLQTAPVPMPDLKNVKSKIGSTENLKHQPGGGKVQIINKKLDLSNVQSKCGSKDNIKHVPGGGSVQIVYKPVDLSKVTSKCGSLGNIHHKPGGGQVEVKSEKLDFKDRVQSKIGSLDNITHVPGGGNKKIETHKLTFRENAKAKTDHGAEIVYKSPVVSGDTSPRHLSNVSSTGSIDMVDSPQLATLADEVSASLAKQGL
Outline: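 K18 P301L tau (15 uM + 0.24 uM Alexa 594-tagged), heparin 20 uM, NaOAc pH 7, 6 h 37 C; ThT 30 uM, 1 h RT, ex 450/em 510 nm.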
% is set by controls: 0 for no effect and ±100 for the full control effect; potency is the fitted concentration of half-maximal effect; tags give direction and shape of the fitted curve.
Note: nearly all actives have a fitted effect of over 55% in size.

SMILES | activity, negative = inhibition | Potency
CC1CCC(NC(=O)C2CC(=O)N(c3ccc4c(c3)OCCO4)C2)CC1 (centres undefined) | inactive: -6.74% | 
Clc1cccc(CSC2=NCCCN2)c1 | inactive: -2.85% | 
CCOc1ccc(N(C)S(=O)(=O)c2cc(-c3cc(C)no3)ccc2OC)cc1 |  | inconclusive: 14.1 µM [inhibitor, partial curve]
Cc1cc(C)c2cc(C=O)c(Cl)nc2c1 |  | inconclusive: 35.5 µM [inhibitor, single point]
O=C(O)c1cc([N+](=O)[O-])ccc1NCCc1ccccc1 |  | inconclusive: 15.8 µM [inhibitor, partial curve]
CCCCN(Cc1ccccc1)S(=O)(=O)c1ccc2[nH]c(=O)oc2c1 | inactive: -1.24% | 
Cc1ccc(CNC(=O)CN(C)S(=O)(=O)c2ccc3c(c2)c(=O)n(C)c(=O)n3C)cc1 |  | inconclusive: 31.6 µM [inhibitor, single point]
COc1ccc(C(=O)Nc2nc(-c3ccc([N+](=O)[O-])cc3)c(-c3ccc(OC)cc3)s2)cc1 |  | inconclusive: 15.8 µM [inhibitor, partial curve]
COc1cccc(/C=N/Nc2snc(SC)c2C#N)c1 |  | inconclusive: 15.8 µM [inhibitor, partial curve, poor fit]
CCOc1cc(CNc2ccc(N3CCCCC3)cc2)cc(Br)c1OCC(=O)NC(C)(C)C |  | inconclusive: 12.6 µM [inhibitor, partial curve]
Cc1cc(C)c(OCC(=O)N(Cc2ccc(N(C)C)cc2)CC2CCCO2)c(C)c1 (centres undefined) |  | inconclusive: 11.2 µM [inhibitor, partial curve]
CCn1c(=O)c2cc(C(=O)NCc3ccc(F)cc3Cl)sc2c2ccccc21 | inactive: 3.59% | 
Cc1ccc(C)c(N(C)C(=O)c2cc3c(s2)-c2ccccc2OC3)c1 |  | inconclusive: 8.91 µM [inhibitor, partial curve]
CCS(=O)(=O)N1CC(=O)N(c2ccc(Cl)cc2C)C(C)(C(=O)NC2CCCCC2)C1 (centres undefined) | inactive: 1.02% | 
O=C(NCCc1ccc(F)cc1)C(=O)NCC(c1cccs1)S(=O)(=O)c1ccc(Cl)cc1 (centres undefined) | inactive: -6.13% | 
O=C(Cn1cc2c(n1)CCCC2)Nc1cc(-c2cccc(Cl)c2)no1 |  | inconclusive: 17.8 µM [inhibitor, single point]
Cc1c(CNC2CCC(C)CC2)c(C(=O)O)c(C)n1Cc1ccc(Cl)cc1 (centres undefined) | inactive: -2.16% | 
Cc1cc(NS(=O)(=O)c2ccc(NC(=O)/C=C/c3ccc(C)o3)cc2)nc(C)n1 |  | inconclusive: 28.2 µM [inhibitor, partial curve]
CCc1cccc2c(C(=O)COC(=O)c3ccc([N+](=O)[O-])s3)c[nH]c12 |  | active: 7.08 µM
